According to the supplement of paper PMC4604168 (melanoma cell lines):
The other results are listed elsewhere or left out. Repeats are few or missing, and single values can be far off.

Key:
Experiment in all cases: cell count relative to DMSO control; melanoma cells; higher = more viable cells
Conditions in all cases: library dose: low library concentration; 72 h
MZ2-MEL = tested on: MZ2-MEL
MeWo = tested on: MeWo
RPMI7951 = tested on: RPMI7951
RVH-421 = tested on: RVH-421
SkMel28 = tested on: SkMel28
SkMel2 = tested on: SkMel2
SkMel30 = tested on: SkMel30
SkMel5 = tested on: SkMel5
UACC257 = tested on: UACC257
UACC62 = tested on: UACC62
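Note: cell number obtained by counting DAPI-stained nuclei in high-throughput microscope images with image analysis software, screen run in 1,536-well plates.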

Row | Structure (SMILES) | cell count (MZ2-MEL) | cell count (MeWo) | cell count (RPMI7951) | cell count (RVH-421) | cell count (SkMel28) | cell count (SkMel2) | cell count (SkMel30) | cell count (SkMel5) | cell count (UACC257) | cell count (UACC62)
1 | Cn1cc(C2=C(c3cn(C4CCN(Cc5ccccn5)CC4)c4ccccc34)C(=O)NC2=O)c2ccccc21 [Enzastaurin] + COc1cc2c(Oc3ccc4[nH]c(C)cc4c3F)ncnc2cc1OCCCN1CCCC1 [cediranib] (first compound 0.8 µM, partner dose 0.4 µM) | 98.5% | 101% | 73.9% | 80.7% | 105% | 94.2% | 111% | 91.6% | 106% | 95.5%
2 | N.N.[Cl][Pt][Cl] [cisplatin] + COc1cc2c(Oc3ccc4[nH]c(C)cc4c3F)ncnc2cc1OCCCN1CCCC1 [cediranib] (first compound 1.6 µM, partner dose 0.4 µM) | 104% | 107% | 88.9% | 86.5% | 106% | 92.2% | 101% | 105% | 96.7% | 110%
3 | Cn1cc(C2=C(c3cn(C4CCN(Cc5ccccn5)CC4)c4ccccc34)C(=O)NC2=O)c2ccccc21 [Enzastaurin] + COc1cc(N2CCC(N3CCN(C)CC3)CC2)ccc1Nc1ncc(Cl)c(Nc2ccccc2S(=O)(=O)C(C)C)n1 [NVP-TAE684] (first compound 0.8 µM, partner dose 0.08 µM) | 99% | 97.5% | 86.8% | 96.4% | 91.5% | 99.5% | 90.8% | 79.3% | 76.2% | 108%
4 | Cn1cc(C2=C(c3cn(C4CCN(Cc5ccccn5)CC4)c4ccccc34)C(=O)NC2=O)c2ccccc21 [Enzastaurin] + Cn1cc(/C=C2\C(=O)Nc3cccnc32)c2ccccc21 [GW441756] (first compound 0.8 µM, partner dose 0.4 µM) | 94.2% | 103% | 103% | 72.9% | 97.7% | 105% | 87.1% | 94.7% | 63% | 95.3%
5 | N.N.[Cl][Pt][Cl] [cisplatin] + O=c1cc(-c2cccc3c2Sc2ccccc2S3)oc(N2CCOCC2)c1 [KU55933] (first compound 1.6 µM, partner dose 1 µM) | 107% | 101% | 116% | 90.2% | 86.5% | 99.7% | 108% | 98.8% | 113% | 105%
6 | C[As](C)SC[C@H](NC(=O)CC[C@H](N)C(=O)O)C(=O)NCC(=O)O [Darinaparsin] + COc1cc2c(Oc3ccc4[nH]c(C)cc4c3F)ncnc2cc1OCCCN1CCCC1 [cediranib] (first compound 0.4 µM, partner dose 0.4 µM) | 107% | 108% | 133% | 102% | 120% | 102% | 109% | 94.5% | 83% | 109%
7 | Cn1cc(C2=C(c3cn(C4CCN(Cc5ccccn5)CC4)c4ccccc34)C(=O)NC2=O)c2ccccc21 [Enzastaurin] + O=C1NC(=O)/C(=C/c2ccc(-c3ccc(F)cc3O)o2)S1 [AS252424] (first compound 0.8 µM, partner dose 1 µM) | 94.3% | 105% | 107% | 83.4% | 97.9% | 96.7% | 94.1% | 101% | 93.8% | 92.6%
8 | N.N.[Cl][Pt][Cl] [cisplatin] + Cc1cc(SCc2sc(-c3ccc(C(F)(F)F)c(F)c3)nc2C)ccc1OCC(=O)O [GW0742] (first compound 1.6 µM, partner dose 2 µM) | 96% | 98.6% | 103% | 95.3% | 83.1% | 92.5% | 95% | 96.8% | 111% | 95.4%
9 | N.N.[Cl][Pt][Cl] [cisplatin] + CCCCCCCCCCCC1=C(O)C(=O)C=C(O)C1=O [Embelin] (first compound 1.6 µM, partner dose 1.2 µM) | 99.3% | 111% | 99.5% | 95.6% | 92.1% | 107% | 119% | 118% | 113% | 137%
10 | N.N.[Cl][Pt][Cl] [cisplatin] + Cc1cc([N+](=O)[O-])ccc1NS(=O)(=O)c1cc(Cl)ccc1Cl [FH535] (first compound 1.6 µM, partner dose 1 µM) | 92.2% | 95.2% | 95.1% | 85.5% | 86.1% | 91.3% | 95.4% | 90.7% | 123% | 85.4%
11 | N.N.[Cl][Pt][Cl] [cisplatin] + CC(C)CCN1c2nc(Nc3cc(F)c(O)c(F)c3)ncc2N(C)C(=O)C1C [BID1870] (first compound 1.6 µM, partner dose 0.2 µM) | 109% | 87.9% | 101% | 102% | 79.8% | 101% | 105% | 101% | 115% | 95.4%
12 | C[As](C)SC[C@H](NC(=O)CC[C@H](N)C(=O)O)C(=O)NCC(=O)O [Darinaparsin] + CN(NC(=O)CC(=O)NN(C)C(=S)c1ccccc1)C(=S)c1ccccc1 [STA4783] (first compound 0.4 µM, partner dose 0.006 µM) | 101% | 97.8% | 86.3% | 67.1% | 76.2% | 101% | 92% | 95% | 79.8% | 88.6%
13 | C[As](C)SC[C@H](NC(=O)CC[C@H](N)C(=O)O)C(=O)NCC(=O)O [Darinaparsin] + CO[C@@H]1[C@H](N(C)C(=O)c2ccccc2)C[C@H]2O[C@]1(C)n1c3ccccc3c3c4c(c5c6ccccc6n2c5c31)C(=O)NC4 [Midostaurin] (first compound 0.4 µM, partner dose 0.08 µM) | 98.2% | 84.6% | 90.9% | 81.2% | 74.8% | 80.5% | 123% | 95.1% | 80.3% | 87%
14 | N.N.[Cl][Pt][Cl] [cisplatin] + COc1ccc(-c2ccc3c(N4CCOCC4)nc(N4C[C@@H](C)O[C@@H](C)C4)nc3n2)cc1CO [KU0063794] (first compound 1.6 µM, partner dose 0.02 µM) | 97.1% | 94.8% | 98.6% | 80.3% | 107% | 98.3% | 88.6% | 92.2% | 74.6% | 99.3%
15 | N.N.[Cl][Pt][Cl] [cisplatin] + CO[C@@H]1[C@H](N(C)C(=O)c2ccccc2)C[C@H]2O[C@]1(C)n1c3ccccc3c3c4c(c5c6ccccc6n2c5c31)C(=O)NC4 [Midostaurin] (first compound 1.6 µM, partner dose 0.08 µM) | 94% | 83.2% | 77.4% | 104% | 83.3% | 75.9% | 112% | 78.9% | 86.4% | 101%
16 | C[As](C)SC[C@H](NC(=O)CC[C@H](N)C(=O)O)C(=O)NCC(=O)O [Darinaparsin] + COc1cc(Nc2ncc(F)c(Nc3ccc4c(n3)NC(=O)C(C)(C)O4)n2)cc(OC)c1OC [Tamatinib] (first compound 0.4 µM, partner dose 0.4 µM) | 91.5% | 81.9% | 83.7% | 116% | 64.4% | 96.7% | 83.5% | 90.5% | 65.5% | 90.2%
17 | Cn1cc(C2=C(c3cn(C4CCN(Cc5ccccn5)CC4)c4ccccc34)C(=O)NC2=O)c2ccccc21 [Enzastaurin] + CCc1ccc(CCOc2ccc(CC3SC(=O)NC3=O)cc2)nc1 [pioglitazone] (first compound 0.8 µM, partner dose 2 µM) | 99.1% | 108% | 99.4% | 106% | 106% | 111% | 122% | 105% | 128% | 114%
18 | Cn1cc(C2=C(c3cn(C4CCN(Cc5ccccn5)CC4)c4ccccc34)C(=O)NC2=O)c2ccccc21 [Enzastaurin] + O=C(O)C(=O)Nc1sc2c(c1C(=O)O)CCNC2 [TCS401] (first compound 0.8 µM, partner dose 1.66667 µM) | 95.2% | 102% | 88.8% | 71.5% | 100% | 99.3% | 114% | 97.2% | 99% | 109%
19 | N.N.[Cl][Pt][Cl] [cisplatin] + COc1ccc2c(c1)CCC1C2CCC2(C)C(NCCCCCCN3C(=O)C=CC3=O)CCC12 [U73122] (first compound 1.6 µM, partner dose 0.4 µM) | 97.8% | 83.3% | 86.3% | 109% | 113% | 101% | 90.8% | 94.9% | 101% | 86%
20 | N.N.[Cl][Pt][Cl] [cisplatin] + O=C(CCCCCCC(=O)Nc1ccccc1)NO [vorinostat] (first compound 1.6 µM, partner dose 0.08 µM) | 105% | 93.8% | 93.5% | 112% | 76.7% | 92.7% | 109% | 91.2% | 95% | 89.8%
21 | N.N.[Cl][Pt][Cl] [cisplatin] + COc1cc(N2CCC(N3CCN(C)CC3)CC2)ccc1Nc1ncc(Cl)c(Nc2ccccc2S(=O)(=O)C(C)C)n1 [NVP-TAE684] (first compound 1.6 µM, partner dose 0.08 µM) | 102% | 88.7% | 92.5% | 81.9% | 75.2% | 96.1% | 86.3% | 95.9% | 56.3% | 90.5%
22 | C[As](C)SC[C@H](NC(=O)CC[C@H](N)C(=O)O)C(=O)NCC(=O)O [Darinaparsin] + O=C(O)c1ccc(-c2c[nH]c3ncc(-c4ccccc4)cc23)cc1C1CCCC1 [GSK650394] (first compound 0.4 µM, partner dose 0.16 µM) | 102% | 91% | 104% | 128% | 86.3% | 102% | 106% | 102% | 77.9% | 105%
